Measured values taken from PMC7408610.
These are yes or no findings as the source states them, for the method shown. In cells and extracts the contact can be indirect. Some entries that bind do so weakly or less than the wild type. For some of these results: Tags and fused reporters may be left off the sequences shown.

Legend:
Mertk-FLAG (mouse) [1] = target: T1, Mertk-FLAG (mouse) (UniProt Q60805); test: proximity ligation; cells expressing Tim-4 and Mertk in the presence of GST-Mertk^FnIII, against control cells (Figure S5)
T1 sequence: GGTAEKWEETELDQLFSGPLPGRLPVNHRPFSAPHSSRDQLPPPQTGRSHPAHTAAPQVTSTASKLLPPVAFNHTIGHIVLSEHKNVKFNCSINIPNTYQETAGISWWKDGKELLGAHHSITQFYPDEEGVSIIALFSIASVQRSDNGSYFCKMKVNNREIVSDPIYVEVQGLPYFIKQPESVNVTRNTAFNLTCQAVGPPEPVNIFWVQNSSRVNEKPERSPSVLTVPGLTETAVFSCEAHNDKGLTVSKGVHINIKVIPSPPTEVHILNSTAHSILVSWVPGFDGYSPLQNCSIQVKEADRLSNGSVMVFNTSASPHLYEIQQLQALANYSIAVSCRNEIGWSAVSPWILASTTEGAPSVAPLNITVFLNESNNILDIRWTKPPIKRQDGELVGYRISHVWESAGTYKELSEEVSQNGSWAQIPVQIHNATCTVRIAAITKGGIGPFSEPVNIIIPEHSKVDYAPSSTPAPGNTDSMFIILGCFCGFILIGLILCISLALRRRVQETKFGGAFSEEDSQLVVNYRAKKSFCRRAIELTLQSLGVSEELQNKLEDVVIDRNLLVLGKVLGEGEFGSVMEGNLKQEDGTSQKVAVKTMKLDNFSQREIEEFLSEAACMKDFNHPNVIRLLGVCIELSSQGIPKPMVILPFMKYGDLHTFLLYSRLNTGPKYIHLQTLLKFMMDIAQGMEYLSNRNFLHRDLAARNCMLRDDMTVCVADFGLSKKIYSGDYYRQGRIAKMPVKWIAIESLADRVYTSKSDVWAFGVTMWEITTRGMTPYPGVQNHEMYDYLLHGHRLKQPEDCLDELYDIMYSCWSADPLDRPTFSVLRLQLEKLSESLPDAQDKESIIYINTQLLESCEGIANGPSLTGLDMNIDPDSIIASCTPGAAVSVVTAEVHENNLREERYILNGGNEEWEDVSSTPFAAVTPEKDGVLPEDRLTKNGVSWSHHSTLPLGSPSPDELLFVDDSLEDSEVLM

Mertk-FLAG (mouse) [2] = target: T1, Mertk-FLAG (mouse); test: proximity ligation; LR73 cells transfected, fixed, permeabilised; anti-FLAG and anti-Tim-4 tail antibodies, Duolink probes; confocal microscopy
Mertk-FLAG (mouse) [3] = target: T1, Mertk-FLAG (mouse); test: co-IP; lysates of transfected 293T cells with anti-FLAG agarose beads in the presence of purified GST-Mertk^FnIII or GST; the pair in the lysate
Mertk-FLAG (mouse) [4] = target: T1, Mertk-FLAG (mouse); test: co-IP; 293T cells co-transfected, lysed 2 d later; anti-FLAG agarose beads, or anti-Tim-4 tail or anti-GFP antibody with protein A/G beads, 4 °C for 2 h; immunoblot; also after treatment of the cells with LDC1267 (Figure S1)
HA-Tim-4 [5] = target: T2, HA-Tim-4 (UniProt Q6U7R4); test: co-IP; lysates of transfected 293T cells with anti-FLAG agarose beads in the presence of purified GST-Mertk^FnIII or GST; the purified competitor against Tim-4 in the lysate; only the binder purified
T2 sequence: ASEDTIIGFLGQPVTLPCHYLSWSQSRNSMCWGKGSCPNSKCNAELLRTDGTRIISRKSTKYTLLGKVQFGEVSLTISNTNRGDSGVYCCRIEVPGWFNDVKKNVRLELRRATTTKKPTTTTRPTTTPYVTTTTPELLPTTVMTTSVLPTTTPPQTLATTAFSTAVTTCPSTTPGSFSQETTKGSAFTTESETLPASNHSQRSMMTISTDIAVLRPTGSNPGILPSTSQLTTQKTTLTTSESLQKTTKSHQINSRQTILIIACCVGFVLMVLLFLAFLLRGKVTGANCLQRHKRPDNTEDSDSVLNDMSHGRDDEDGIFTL

HA-Tim-4 [6] = target: T2, HA-Tim-4; test: co-IP; 293T cells co-transfected, lysed 2 d later; anti-FLAG agarose beads, or anti-Tim-4 tail or anti-GFP antibody with protein A/G beads, 4 °C for 2 h; immunoblot; also after treatment of the cells with LDC1267 (Figure S1)
[7] = target: T3, Tim-4 (endogenous, peritoneal macrophages) (mouse (endogenous in peritoneal macrophages)) (UniProt Q6U7R4); test: co-IP; lysates of peritoneal macrophages, anti-Tim-4 tail antibody or control antibody with protein A/G agarose beads; Mertk detected by immunoblot
T3 sequence: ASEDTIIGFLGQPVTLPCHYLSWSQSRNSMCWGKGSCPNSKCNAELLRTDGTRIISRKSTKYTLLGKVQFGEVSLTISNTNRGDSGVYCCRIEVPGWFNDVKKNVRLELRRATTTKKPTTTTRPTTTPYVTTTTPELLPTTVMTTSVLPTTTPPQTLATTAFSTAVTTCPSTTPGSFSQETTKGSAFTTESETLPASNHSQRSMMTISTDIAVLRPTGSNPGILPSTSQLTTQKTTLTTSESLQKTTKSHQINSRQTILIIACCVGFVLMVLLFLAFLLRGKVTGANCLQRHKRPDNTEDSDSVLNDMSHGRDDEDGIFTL

Tim-4^ECR-FLAG = target: T4, Tim-4^ECR-FLAG (UniProt Q6U7R4); test: co-IP; 293T cells co-transfected, lysed 2 d later; anti-FLAG agarose beads, or anti-Tim-4 tail or anti-GFP antibody with protein A/G beads, 4 °C for 2 h; immunoblot; also after treatment of the cells with LDC1267 (Figure S1)
T4 sequence: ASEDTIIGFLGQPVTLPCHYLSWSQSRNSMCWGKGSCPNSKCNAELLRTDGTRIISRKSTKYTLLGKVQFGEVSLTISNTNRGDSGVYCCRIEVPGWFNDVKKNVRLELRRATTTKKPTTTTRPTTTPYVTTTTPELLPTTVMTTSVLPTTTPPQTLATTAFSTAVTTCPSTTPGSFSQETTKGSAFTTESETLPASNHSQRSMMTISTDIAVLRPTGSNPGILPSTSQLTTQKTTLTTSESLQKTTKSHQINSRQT

B1: HA-Tim-4 (receptor, UniProt Q6U7R4 23-343)
chain: ASEDTIIGFLGQPVTLPCHYLSWSQSRNSMCWGKGSCPNSKCNAELLRTDGTRIISRKSTKYTLLGKVQFGEVSLTISNTNRGDSGVYCCRIEVPGWFNDVKKNVRLELRRATTTKKPTTTTRPTTTPYVTTTTPELLPTTVMTTSVLPTTTPPQTLATTAFSTAVTTCPSTTPGSFSQETTKGSAFTTESETLPASNHSQRSMMTISTDIAVLRPTGSNPGILPSTSQLTTQKTTLTTSESLQKTTKSHQINSRQTILIIACCVGFVLMVLLFLAFLLRGKVTGANCLQRHKRPDNTEDSDSVLNDMSHGRDDEDGIFTL
For B1, the binding (Mertk-FLAG (mouse) [1]) was “binds”, the binding (Mertk-FLAG (mouse) [2]) was “binds” and the binding (Mertk-FLAG (mouse) [3]) was “binds”. The binding (Mertk-FLAG (mouse) [4]) was “binds”.

B2: GST-Mertk^FnIII (domain or fragment, UniProt Q60805 278-497)
chain: IPSPPTEVHILNSTAHSILVSWVPGFDGYSPLQNCSIQVKEADRLSNGSVMVFNTSASPHLYEIQQLQALANYSIAVSCRNEIGWSAVSPWILASTTEGAPSVAPLNITVFLNESNNILDIRWTKPPIKRQDGELVGYRISHVWESAGTYKELSEEVSQNGSWAQIPVQIHNATCTVRIAAITKGGIGPFSEPVNIIIPEHSKVDYAPSSTPAPGNTDSM
B2 was tested, and the binding (HA-Tim-4 [5]) was “binds”.

B3: Mertk-FLAG (receptor, UniProt Q60805 19-994)
chain: GGTAEKWEETELDQLFSGPLPGRLPVNHRPFSAPHSSRDQLPPPQTGRSHPAHTAAPQVTSTASKLLPPVAFNHTIGHIVLSEHKNVKFNCSINIPNTYQETAGISWWKDGKELLGAHHSITQFYPDEEGVSIIALFSIASVQRSDNGSYFCKMKVNNREIVSDPIYVEVQGLPYFIKQPESVNVTRNTAFNLTCQAVGPPEPVNIFWVQNSSRVNEKPERSPSVLTVPGLTETAVFSCEAHNDKGLTVSKGVHINIKVIPSPPTEVHILNSTAHSILVSWVPGFDGYSPLQNCSIQVKEADRLSNGSVMVFNTSASPHLYEIQQLQALANYSIAVSCRNEIGWSAVSPWILASTTEGAPSVAPLNITVFLNESNNILDIRWTKPPIKRQDGELVGYRISHVWESAGTYKELSEEVSQNGSWAQIPVQIHNATCTVRIAAITKGGIGPFSEPVNIIIPEHSKVDYAPSSTPAPGNTDSMFIILGCFCGFILIGLILCISLALRRRVQETKFGGAFSEEDSQLVVNYRAKKSFCRRAIELTLQSLGVSEELQNKLEDVVIDRNLLVLGKVLGEGEFGSVMEGNLKQEDGTSQKVAVKTMKLDNFSQREIEEFLSEAACMKDFNHPNVIRLLGVCIELSSQGIPKPMVILPFMKYGDLHTFLLYSRLNTGPKYIHLQTLLKFMMDIAQGMEYLSNRNFLHRDLAARNCMLRDDMTVCVADFGLSKKIYSGDYYRQGRIAKMPVKWIAIESLADRVYTSKSDVWAFGVTMWEITTRGMTPYPGVQNHEMYDYLLHGHRLKQPEDCLDELYDIMYSCWSADPLDRPTFSVLRLQLEKLSESLPDAQDKESIIYINTQLLESCEGIANGPSLTGLDMNIDPDSIIASCTPGAAVSVVTAEVHENNLREERYILNGGNEEWEDVSSTPFAAVTPEKDGVLPEDRLTKNGVSWSHHSTLPLGSPSPDELLFVDDSLEDSEVLM
For B3, the binding (HA-Tim-4 [6]) was “binds”.

B4: Mertk (endogenous, peritoneal macrophages) (receptor, UniProt Q60805 19-994)
chain: GGTAEKWEETELDQLFSGPLPGRLPVNHRPFSAPHSSRDQLPPPQTGRSHPAHTAAPQVTSTASKLLPPVAFNHTIGHIVLSEHKNVKFNCSINIPNTYQETAGISWWKDGKELLGAHHSITQFYPDEEGVSIIALFSIASVQRSDNGSYFCKMKVNNREIVSDPIYVEVQGLPYFIKQPESVNVTRNTAFNLTCQAVGPPEPVNIFWVQNSSRVNEKPERSPSVLTVPGLTETAVFSCEAHNDKGLTVSKGVHINIKVIPSPPTEVHILNSTAHSILVSWVPGFDGYSPLQNCSIQVKEADRLSNGSVMVFNTSASPHLYEIQQLQALANYSIAVSCRNEIGWSAVSPWILASTTEGAPSVAPLNITVFLNESNNILDIRWTKPPIKRQDGELVGYRISHVWESAGTYKELSEEVSQNGSWAQIPVQIHNATCTVRIAAITKGGIGPFSEPVNIIIPEHSKVDYAPSSTPAPGNTDSMFIILGCFCGFILIGLILCISLALRRRVQETKFGGAFSEEDSQLVVNYRAKKSFCRRAIELTLQSLGVSEELQNKLEDVVIDRNLLVLGKVLGEGEFGSVMEGNLKQEDGTSQKVAVKTMKLDNFSQREIEEFLSEAACMKDFNHPNVIRLLGVCIELSSQGIPKPMVILPFMKYGDLHTFLLYSRLNTGPKYIHLQTLLKFMMDIAQGMEYLSNRNFLHRDLAARNCMLRDDMTVCVADFGLSKKIYSGDYYRQGRIAKMPVKWIAIESLADRVYTSKSDVWAFGVTMWEITTRGMTPYPGVQNHEMYDYLLHGHRLKQPEDCLDELYDIMYSCWSADPLDRPTFSVLRLQLEKLSESLPDAQDKESIIYINTQLLESCEGIANGPSLTGLDMNIDPDSIIASCTPGAAVSVVTAEVHENNLREERYILNGGNEEWEDVSSTPFAAVTPEKDGVLPEDRLTKNGVSWSHHSTLPLGSPSPDELLFVDDSLEDSEVLM
B4 was tested, and the binding [7] was “binds”.

B5: Mertk^ECR (domain or fragment, UniProt Q60805 19-497)
chain: GGTAEKWEETELDQLFSGPLPGRLPVNHRPFSAPHSSRDQLPPPQTGRSHPAHTAAPQVTSTASKLLPPVAFNHTIGHIVLSEHKNVKFNCSINIPNTYQETAGISWWKDGKELLGAHHSITQFYPDEEGVSIIALFSIASVQRSDNGSYFCKMKVNNREIVSDPIYVEVQGLPYFIKQPESVNVTRNTAFNLTCQAVGPPEPVNIFWVQNSSRVNEKPERSPSVLTVPGLTETAVFSCEAHNDKGLTVSKGVHINIKVIPSPPTEVHILNSTAHSILVSWVPGFDGYSPLQNCSIQVKEADRLSNGSVMVFNTSASPHLYEIQQLQALANYSIAVSCRNEIGWSAVSPWILASTTEGAPSVAPLNITVFLNESNNILDIRWTKPPIKRQDGELVGYRISHVWESAGTYKELSEEVSQNGSWAQIPVQIHNATCTVRIAAITKGGIGPFSEPVNIIIPEHSKVDYAPSSTPAPGNTDSM
In the case of B5, the binding (Tim-4^ECR-FLAG) is reported as “binds”.

B6: Mertk^FnIII (domain or fragment, UniProt Q60805 278-497)
chain: IPSPPTEVHILNSTAHSILVSWVPGFDGYSPLQNCSIQVKEADRLSNGSVMVFNTSASPHLYEIQQLQALANYSIAVSCRNEIGWSAVSPWILASTTEGAPSVAPLNITVFLNESNNILDIRWTKPPIKRQDGELVGYRISHVWESAGTYKELSEEVSQNGSWAQIPVQIHNATCTVRIAAITKGGIGPFSEPVNIIIPEHSKVDYAPSSTPAPGNTDSM
For B6, the binding (Tim-4^ECR-FLAG) was “binds”.

B7: Mertk^Ig (domain or fragment, UniProt Q60805 19-277)
chain: GGTAEKWEETELDQLFSGPLPGRLPVNHRPFSAPHSSRDQLPPPQTGRSHPAHTAAPQVTSTASKLLPPVAFNHTIGHIVLSEHKNVKFNCSINIPNTYQETAGISWWKDGKELLGAHHSITQFYPDEEGVSIIALFSIASVQRSDNGSYFCKMKVNNREIVSDPIYVEVQGLPYFIKQPESVNVTRNTAFNLTCQAVGPPEPVNIFWVQNSSRVNEKPERSPSVLTVPGLTETAVFSCEAHNDKGLTVSKGVHINIKV
In the case of B7, the binding (Tim-4^ECR-FLAG) is reported as “no binding”.
